From article PMC7862067 (Genetics in Medicine, 2020)

Biological target: T1, GFP-tagged PP2A regulatory subunit B55α (UniProt P63151 1-447)
T1 sequence: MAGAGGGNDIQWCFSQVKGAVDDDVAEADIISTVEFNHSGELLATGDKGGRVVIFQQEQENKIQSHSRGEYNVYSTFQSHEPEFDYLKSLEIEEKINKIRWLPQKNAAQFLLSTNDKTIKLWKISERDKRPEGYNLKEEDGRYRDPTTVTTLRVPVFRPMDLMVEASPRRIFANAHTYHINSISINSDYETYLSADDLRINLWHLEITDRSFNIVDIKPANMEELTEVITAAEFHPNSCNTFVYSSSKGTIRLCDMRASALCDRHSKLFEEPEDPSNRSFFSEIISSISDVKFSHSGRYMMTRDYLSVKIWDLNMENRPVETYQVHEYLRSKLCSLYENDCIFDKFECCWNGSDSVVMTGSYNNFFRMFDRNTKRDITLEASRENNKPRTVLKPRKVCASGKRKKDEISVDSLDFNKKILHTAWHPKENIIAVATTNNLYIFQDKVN
Experiment: co-IP

B1: HA-tagged Aα variant p.Met180Lys (natural protein)
chain: not shown
decrease of binding relative to WT Aα: 50%
